# Target: T1, IgG Fc domains (Homo sapiens, UniProt P01857)
# T1 construct: The IgG1-Fc-domain was immobilized on a CM-5 sensor chip (GE Healthcare)
# Test: Binding to IgG Fc domains
# Settings: qualitative statement; values not given
# Description: The IgG1-Fc-domain was immobilized on a CM-5 sensor chip (GE Healthcare); the chip was equilibrated with SPR running buffer. Surface-exposed carboxylic groups were activated by passing a mixture of EDC and NHS to yield reactive ester groups. 700-1500 RU target (on-ligand) were immobilized on a flow cell, IgG-Fc (off-ligand) was immobilized on another flow cell. Injection of ethanolamine after ligand immobilization was used to block unreacted NHS groups. Upon ligand binding, protein analyte was accumulated on the surface increasing the refractive index. This change in the refractive index was measured in real time and plotted as response or resonance units (RU) versus time. The analytes were applied to the chip in serial dilutions with a flow rate of 30 μl/min. The association was performed for 120 seconds and the dissociation for 360 seconds. After each run, the chip surface was regenerated with 30 μl regeneration buffer (10 mM HCL) and equilibrated with running buffer. A dilution series served as positive control, whereas a dilution series of unmodified scaffold represents the negative control. The control samples were applied to the matrix with a flow rate of 30 μl/min, while they associate for 60 seconds and dissociate for 120 seconds. […] Evaluated dissociation constants (KD) were standardized against off-target and indicated.
substance,measurement,value
"SEQ ID NO: 2: alkaline stable, non-Fc binding parental protein with triple helix structure, 58 amino acids; scaffold of library PA11 (IAAKFDEAQSAADSEILHLPNLTEEQRNAFRQSLSDDPSVSLEVLGEAQKLND; PA11 artifical sequence for library)",binding to IgG Fc domains,no binding

# From patent publication US11208436B2, “Populations of polypeptides having a triple-helical structure” (Navigo Proteins GmbH, priority 2018, dated 2021)
